Measurements from PubChem BioAssay AID312 (DTP/NCI, 2004).
Toxic doses and inconclusive results are not listed. Certain results were filed several times, with different values. This list holds those alone. The source may hold further records. The records of an entry are repeats across runs, samples, wells, individuals or studies.

Tested on: BDF1 mice, C1498 leukemia ip, median survival T/C
Test: NCI In Vivo Anticancer Drug Screen. Data for tumor model C1498 Myeloid Leukemia (intraperitoneal) in B6D2F1 (BDF1) mice
Settings: endpoint: median survival time, schedule: Q01DX010 (ip), vehicle: saline, higher = longer survival
Procedure: The antitumor activity of compounds was measured in mice bearing transplantable tumors. Survival or tumor size were measured and the results are expressed as the measurement made in the treated group (T) divided by the measurement made in the vehicle treated control group (C). The tumor model used in this assay is C1498 Myeloid Leukemia (intraperitoneal) in B6D2F1 (BDF1) mice

SMILES | T/C (dose: 12.0 mg/kg/injection) | T/C (dose: 500.0 micrograms/kg/injection) | T/C (dose: 1000.0 micrograms/kg/injection)
O=C(Nc1ccc(C2=NCCN2)cc1)c1ccc(C(=O)Nc2ccc(C3=NCCN3)cc2)c([N+](=O)[O-])c1 | 100 % of control and 157 % of control |  | 
CC(=O)NC1=C(N2CC2)C(=O)C(NC(C)=O)=C(N2CC2)C1=O |  | 122 % of control and 150 % of control | 116 % of control and 163 % of control
